# Some of the results follow.
# B1: UEA-I (Ulex europaeus), P22972 (protein)
# chain: SDDLSFKFKNFSQNGKDLSFQGDASVIETGVLQLNKVGNNLPDETGGIARYIAPIHIWNCNTGEVASFITSFSFFMETSANPKAATDGLTFFLAPPDSPLRRAGGYFGLFEDTKDNDSSYQTVAVEFDTIGSPVNFDDPGFPHIGIDVNRVKSINAERWNKRYGLNNVANVEIIYEASSKTLTASLTYPSDQTSISVTSIVDLKEILPEWVSVGFSGGTYIGRQATHEVLNWYFTSNLIN
# Columns and labels:
# Assay in all cases: glycan array binding signal (z-score within array); higher = stronger binding
# Settings in all cases: glycan notation: IUPAC condensed, linker removed
# [1] = target: Gal(a1-3)Gal
# Procedure, shortened: (§1)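 The binding signal is a Z-score computed within each array and averaged over linkers. Arrays of the same protein sequence at different concentrations or buffers were also averaged together. Data originate from 3228 arrays in the Consortium for Functional Glycomics database, kept only where the protein sequence was available.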
# [2] = target: Gal(a1-3)Gal(b1-3)GlcNAc
# Procedure, shortened: as §1
# [3] = target: Gal(a1-3)Gal(b1-3)GlcNAc(b1-2)Man(a1-3)[Gal(a1-3)Gal(b1-3)GlcNAc(b1-2)Man(a1-6)]Man(b1-4)GlcNAc(b1-4)GlcNAc
# Procedure, shortened: as §1
# [4] = target: Gal(a1-3)Gal(b1-3)GlcNAc(b1-3)GalNAc
# Procedure, shortened: as §1
# [5] = target: Gal(a1-3)Gal(b1-3)[Fuc(a1-4)]GlcNAc(b1-2)Man(a1-3)[Gal(a1-3)Gal(b1-3)[Fuc(a1-4)]GlcNAc(b1-2)Man(a1-6)]Man(b1-4)GlcNAc(b1-4)GlcNAc
# Procedure, shortened: as §1
# [6] = target: Gal(a1-3)Gal(b1-4)Glc
# Procedure, shortened: as §1
# [7] = target: Gal(a1-3)Gal(b1-4)GlcNAc
# Procedure, shortened: as §1
# [8] = target: Gal(a1-3)Gal(b1-4)GlcNAc(b1-3)GalNAc
# Procedure, shortened: as §1
# [9] = target: Gal(a1-3)Gal(b1-4)[Fuc(a1-3)]GlcNAc
# Procedure, shortened: as §1
# [10] = target: Gal(a1-3)Gal(b1-4)[Fuc(a1-3)]GlcNAc(b1-2)Man(a1-3)[Gal(a1-3)Gal(b1-4)[Fuc(a1-3)]GlcNAc(b1-2)Man(a1-6)]Man(b1-4)GlcNAc(b1-4)GlcNAc
# Procedure, shortened: as §1
# [11] = target: Gal(a1-3)GalNAc
# Procedure, shortened: as §1
# [12] = target: Gal(a1-3)[Gal(a1-4)]Gal(b1-4)GlcNAc
# Procedure, shortened: as §1
# [13] = target: Gal(a1-4)Gal(b1-3)GlcNAc(b1-2)Man(a1-3)[Gal(a1-4)Gal(b1-3)GlcNAc(b1-2)Man(a1-6)]Man(b1-4)GlcNAc(b1-4)GlcNAc
# Procedure, shortened: as §1
# [14] = target: Gal(a1-4)Gal(b1-4)Glc
# Procedure, shortened: as §1
# [15] = target: Gal(a1-4)Gal(b1-4)GlcNAc
# Procedure, shortened: as §1
# [16] = target: Gal(a1-4)Gal(b1-4)GlcNAc(b1-2)Man(a1-3)[Gal(a1-4)Gal(b1-4)GlcNAc(b1-2)Man(a1-6)]Man(b1-4)GlcNAc(b1-4)GlcNAc
# Procedure, shortened: as §1
# [17] = target: Gal(a1-4)Gal(b1-4)GlcNAc(b1-3)Gal(b1-4)Glc
# Procedure, shortened: as §1
# [18] = target: Gal(a1-4)GlcNAc
# Procedure, shortened: as §1
# [19] = target: Gal(a1-6)Glc
# Procedure, shortened: as §1
# [20] = target: Gal(b1-2)Gal
# Procedure, shortened: as §1
# [21] = target: Gal(b1-3)Gal
# Procedure, shortened: as §1
# [22] = target: Gal(b1-3)Gal(b1-4)GlcNAc
# Procedure, shortened: as §1
# [23] = target: Gal(b1-3)Gal(b1-4)GlcNAc(b1-2)Man(a1-3)[Gal(b1-3)Gal(b1-4)GlcNAc(b1-2)Man(a1-6)]Man(b1-4)GlcNAc(b1-4)GlcNAc
# Procedure, shortened: as §1
# [24] = target: Gal(b1-3)GalNAc
# Procedure, shortened: as §1
# [25] = target: Gal(b1-3)GalNAc(a1-3)[Fuc(a1-2)]Gal(b1-4)Glc
# Procedure, shortened: as §1
# [26] = target: Gal(b1-3)GalNAc(a1-3)[Fuc(a1-2)]Gal(b1-4)GlcNAc
# Procedure, shortened: as §1
# [27] = target: Gal(b1-3)GalNAc(b1-3)Gal(a1-4)Gal(b1-4)Glc
# Procedure, shortened: as §1
# [28] = target: Gal(b1-3)GalNAc(b1-4)Gal(b1-4)Glc
# Procedure, shortened: as §1
# [29] = target: Gal(b1-3)GalNAc(b1-4)[Neu5Ac(a2-3)]Gal(b1-4)Glc
# Procedure, shortened: as §1
# [30] = target: Gal(b1-3)GlcNAc
# Procedure, shortened: as §1
# [31] = target: Gal(b1-3)GlcNAc(a1-6)Gal(b1-4)GlcNAc
# Procedure, shortened: as §1
# [32] = target: Gal(b1-3)GlcNAc(b1-2)Man(a1-3)[Gal(b1-3)GlcNAc(b1-2)Man(a1-6)]Man(b1-4)GlcNAc(b1-4)GlcNAc
# Procedure, shortened: as §1
# [33] = target: Gal(b1-3)GlcNAc(b1-2)Man(a1-3)[Gal(b1-3)GlcNAc(b1-2)Man(a1-6)]Man(b1-4)GlcNAc(b1-4)[Fuc(a1-6)]GlcNAc
# Procedure, shortened: as §1
# [34] = target: Gal(b1-3)GlcNAc(b1-2)[Gal(b1-3)GlcNAc(b1-6)]Man(a1-6)[Gal(b1-3)GlcNAc(b1-2)Man(a1-3)]Man(b1-4)GlcNAc(b1-4)GlcNAc
# Procedure, shortened: as §1
# [35] = target: Gal(b1-3)GlcNAc(b1-3)Gal(b1-3)GlcNAc
# Procedure, shortened: as §1
# [36] = target: Gal(b1-3)GlcNAc(b1-3)Gal(b1-4)Glc
# Procedure, shortened: as §1
# [37] = target: Gal(b1-3)GlcNAc(b1-3)Gal(b1-4)GlcNAc
# Procedure, shortened: as §1
# [38] = target: Gal(b1-3)GlcNAc(b1-3)Gal(b1-4)GlcNAc(b1-6)[Gal(b1-3)GlcNAc(b1-3)]Gal(b1-4)Glc
# Procedure, shortened: as §1
# [39] = target: Gal(b1-3)GlcNAc(b1-3)Gal(b1-4)[Fuc(a1-3)]GlcNAc(b1-6)[Gal(b1-3)GlcNAc(b1-3)]Gal(b1-4)Glc
# Procedure, shortened: as §1
# [40] = target: Gal(b1-3)GlcNAc(b1-3)GalNAc
# Procedure, shortened: as §1
# [41] = target: Gal(b1-3)GlcNAc(b1-6)Gal(b1-4)GlcNAc
# Procedure, shortened: as §1
# [42] = target: Gal(b1-3)[Fuc(a1-4)]GlcNAc
# Procedure, shortened: as §1
# [43] = target: Gal(b1-3)[Fuc(a1-4)]GlcNAc(b1-2)Man(a1-3)[Gal(b1-3)[Fuc(a1-4)]GlcNAc(b1-2)Man(a1-6)]Man(b1-4)GlcNAc(b1-4)GlcNAc
# Procedure, shortened: as §1
# [44] = target: Gal(b1-3)[Fuc(a1-4)]GlcNAc(b1-2)Man(a1-3)[Gal(b1-3)[Fuc(a1-4)]GlcNAc(b1-2)Man(a1-6)]Man(b1-4)GlcNAc(b1-4)[Fuc(a1-6)]GlcNAc
# Procedure, shortened: as §1
# [45] = target: Gal(b1-3)[Fuc(a1-4)]GlcNAc(b1-3)Gal(b1-3)[Fuc(a1-4)]GlcNAc
# Procedure, shortened: as §1
binder,measurement,setting,value
B1,glycan array binding signal (z-score),[1],-0.179
same,glycan array binding signal (z-score),[2],-0.18
same,glycan array binding signal (z-score),[3],-0.179
same,glycan array binding signal (z-score),[4],-0.181
same,glycan array binding signal (z-score),[5],-0.185
same,glycan array binding signal (z-score),[6],-0.172
same,glycan array binding signal (z-score),[7],-0.186
same,glycan array binding signal (z-score),[8],-0.181
same,glycan array binding signal (z-score),[9],-0.184
same,glycan array binding signal (z-score),[10],-0.177
same,glycan array binding signal (z-score),[11],-0.187
same,glycan array binding signal (z-score),[12],-0.184
same,glycan array binding signal (z-score),[13],-0.17
same,glycan array binding signal (z-score),[14],-0.167
same,glycan array binding signal (z-score),[15],-0.176
same,glycan array binding signal (z-score),[16],-0.126
same,glycan array binding signal (z-score),[17],-0.177
same,glycan array binding signal (z-score),[18],-0.174
same,glycan array binding signal (z-score),[19],-0.182
same,glycan array binding signal (z-score),[20],-0.166
same,glycan array binding signal (z-score),[21],-0.171
same,glycan array binding signal (z-score),[22],-0.18
same,glycan array binding signal (z-score),[23],-0.174
same,glycan array binding signal (z-score),[24],-0.184
same,glycan array binding signal (z-score),[25],-0.177
same,glycan array binding signal (z-score),[26],-0.182
same,glycan array binding signal (z-score),[27],-0.181
same,glycan array binding signal (z-score),[28],-0.168
same,glycan array binding signal (z-score),[29],-0.18
same,glycan array binding signal (z-score),[30],-0.177
same,glycan array binding signal (z-score),[31],-0.173
same,glycan array binding signal (z-score),[32],-0.172
same,glycan array binding signal (z-score),[33],-0.174
same,glycan array binding signal (z-score),[34],-0.164
same,glycan array binding signal (z-score),[35],-0.175
same,glycan array binding signal (z-score),[36],-0.18
same,glycan array binding signal (z-score),[37],-0.177
same,glycan array binding signal (z-score),[38],-0.172
same,glycan array binding signal (z-score),[39],-0.182
same,glycan array binding signal (z-score),[40],-0.17
same,glycan array binding signal (z-score),[41],-0.168
same,glycan array binding signal (z-score),[42],-0.179
same,glycan array binding signal (z-score),[43],-0.169
same,glycan array binding signal (z-score),[44],-0.176
same,glycan array binding signal (z-score),[45],-0.175

# Reference: the supplement of paper PMC8728848
